According to PubChem BioAssay AID686979 (National Center for Advancing Translational Sciences (NCATS), 2013):
The whole screen tested about 420,000 compounds, of which about 50,000 (12%) were called active. Inconclusive means that the source gave no clear call. Such entries were picked first, then a sample of the others. The call rests on the fitted dose curve; in most records, active means well fitted inhibition curve with a large enough effect; inconclusive means small, poorly fitted or top-dose-only effect; inactive means flat fitted curve, though single readings scatter. Potencies of inconclusive entries are left out as doubtful fits.

Assay: qHTS for Inhibitors of human tyrosyl-DNA phosphodiesterase 1 (TDP1): qHTS in cells in presence of CPT; further: nearly all actives have a fitted effect of over 55% in size
Conditions: chicken DT40 Tdp1-/-;hTDP1 cells + 20 nM CPT, ATP luminescence, 48 h; activity change, negative = growth inhibition: at 46.2 µM (top of the series)
Outline: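 Cell growth measured by CellTiter-Glo luminescence after a minimum 48 h, 37 C compound exposure with 20 nM CPT in Tdp1-knockout DT40 cells stably expressing hTDP1, seeded 400/well; qHTS titration format.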
On the % scale 0 is the no-effect control and ±100 the full control effect; potency means the concentration at half of the fitted maximal effect; tags describe the fitted curve by direction and shape.

Structure (SMILES) | Potency | activity change, negative = growth inhibition
COCCCNCCCCOc1ccc(Br)cc1C | inconclusive [inhibitor, partial curve] | –
COC(=O)N1[C@H](C)C=C[C@]1(Cc1ccccc1)C(=O)NCCCNc1ncc(C(F)(F)F)cc1Cl | inconclusive [inhibitor, single point] | –
CC(CNC(=O)Cc1ccc(NC(=O)N2CCSc3ncccc32)cc1)c1ccccc1 (stereo unspecified) | inconclusive [inhibitor, single point] | –
COc1ccccc1NC(=O)NCCN1CCN(C(=O)Nc2ccccc2OC)CC1 | – | inactive: 4.86%
Cc1ccc(CNC(=O)c2ccc(N3CCC4(CC3)CC(c3cccc(Br)c3)=NO4)c([N+](=O)[O-])c2)cc1 | active: 10.3 µM | –
COc1cccc(NC(=O)c2ccc3nc(C)sc3c2)c1 | active: 18.4 µM | –
Cc1[nH]c2ccccc2c1C(=O)C(C)OC(=O)c1ccccc1NCCO (stereo unspecified) | inconclusive [inhibitor, single point] | –
CCOC(=O)[C@@H]1[C@H]2COc3ccccc3[C@@H]2N2C(=O)N(c3ccc(Br)cc3)C(=O)[C@@]12C | inconclusive [inhibitor, single point] | –
Cc1cc(C(=O)CSc2nnc(NCc3ccccc3)s2)c(C)n1C | active: 10.3 µM | –
CCOC(=O)c1ccccc1N1C(=O)C2Sc3[nH]c(=O)sc3C(/C=C/c3ccccc3)C2C1=O (stereo unspecified) | active: 18.4 µM | –
CN(C)S(=O)(=O)c1ccc(C(=O)NCc2nnc(SCC(=O)Nc3ccc(F)cc3)n2-c2ccc(F)cc2)cc1 | – | inactive: -5.86%
CCOC(=O)C1=C(CN2CCN(c3ccccc3F)CC2)NC(=O)NC1c1ccc(Cl)cc1 (stereo unspecified) | active: 25.9 µM | –
Cc1ccccc1NCc1cccn1-c1nnc(N2CCC(C)CC2)s1 | inconclusive [inhibitor, single point] | –
CCN(Cc1ccccc1)c1ccc(/C=N/NC(=O)c2cccc(S(=O)(=O)N3CCOCC3)c2)cc1 | inconclusive [inhibitor, single point] | –
Cc1ccc(S(=O)(=O)N2CCN(C(=O)COc3ccc(Br)cc3)CC2)cc1 | inconclusive [inhibitor, single point] | –
COc1ccc(-c2cn3c(n2)sc2cc(C(=O)Nc4cccc(OC)c4)ccc23)cc1 | inconclusive [inhibitor, single point] | –
CCN(c1ccccc1)S(=O)(=O)c1ccc(F)cc1 | inconclusive [inhibitor, single point] | –
CCOC(=O)c1ccc(NC(=S)Nc2ccc(C)cc2)cc1 | – | inactive: 0.825%
COc1ccc(NC(=S)NC(=O)c2cncc(Br)c2)cc1 | – | inactive: 8.04%
Cc1nc(COc2ccccc2Cl)sc1-c1ccnc(N)n1 | inconclusive [inhibitor, single point] | –
CC[n+]1c(C)cc(C)n1-c1ccccc1 | inconclusive [inhibitor, partial curve] | –
Cc1ccc(CNC(=O)C2CCN(S(=O)(=O)c3cc(-c4noc(C)n4)ccc3C)CC2)cc1 | active: 4.61 µM | –
COc1cccc(OC)c1OCC(O)CN1CCN(c2ccccc2)CC1 (stereo unspecified) | inconclusive [inhibitor, single point] | –
CCOC(=O)c1c(C)[nH]c(C(=O)COC(=O)CCNS(=O)(=O)c2ccc(NC(C)=O)cc2)c1C | – | inactive: 0.313%

Structure (SMILES) | Potency | activity change, negative = growth inhibition
COc1ccc(CCNS(=O)(=O)c2cccc(S(=O)(=O)N3CCCC3)c2)cc1OC | inconclusive [inhibitor, single point] | –
O=Cc1ccccc1Oc1ccccc1 | inconclusive [inhibitor, single point] | –
CCOc1ccc(NC(=O)CC2C(=O)N(c3ccccc3)C(=O)N2Cc2ccc3c(c2)OCO3)cc1 (stereo unspecified) | inconclusive [inhibitor, single point] | –
Cc1csc2nc(O)c(C(=O)NC3CCCCC3C)c(=O)n12 (stereo unspecified) | inconclusive [inhibitor, single point] | –
Cc1ccccc1S(=O)(=O)N1C[C@H]2CON(C)[C@H]2C[C@H]1c1cccc(Oc2ccccc2)c1 | inconclusive [inhibitor, single point] | –
Cc1ccc(S(=O)(=O)Nc2ccc(C(N)=O)cc2)cc1[N+](=O)[O-] | inconclusive [inhibitor, single point] | –
COc1ccc(C(C)(NC(C)=O)c2nc(-c3ccc(F)c(Cl)c3)cs2)cc1 (stereo unspecified) | active: 18.4 µM | –
O=C(CO/N=C/c1ccc(Cl)cc1Cl)NNC(=O)c1ccc(Cl)cc1Cl | – | inactive: -8.33%
O=C(CCc1ccccc1)N1CCN(S(=O)(=O)c2cccs2)CC1 | – | inactive: 3.41%
COC(=O)C1CCCN1C(=O)COc1ccc(Br)cc1Cl (stereo unspecified) | inconclusive [inhibitor, single point] | –
Cn1c(=O)oc2cc(S(=O)(=O)Nc3ccccc3O)ccc21 | inconclusive [inhibitor, partial curve] | –
CCOc1cccc(CNn2cnnc2)c1OCc1ccccc1Cl | – | inactive: -18.4%
COCCN(C(=O)COC(=O)/C=C/c1ccc(Cl)c(Cl)c1)c1c(N)n(Cc2ccccc2)c(=O)[nH]c1=O | active: 16.4 µM | –
CC[n+]1c(/C=C/c2ccc(OC)c(OC)c2)ccc2ccccc21 | inconclusive [inhibitor, single point] | –
COc1ccc2oc(=O)c(-c3csc(Nc4ccc(O)cc4)n3)cc2c1 | active: 3.26 µM | –
S=C(NCCN1CCOCC1)N1CCN(c2cccc(Cl)c2)CC1 | – | inactive: -0.709%
O=C(NNC(=O)c1cnccn1)c1cccc([N+](=O)[O-])c1 | inconclusive [inhibitor, single point] | –
COc1ccc(-c2cc(C(F)(F)F)nc(SCC(=O)N3CCC(C)CC3)n2)cc1 | inconclusive [inhibitor, single point] | –
COc1ccc(OC)c(CN2C(=O)CN(S(C)(=O)=O)CC2(C)C(=O)NCc2ccccc2)c1 (stereo unspecified) | – | inactive: 13.1%
Nc1nc(=S)c2ncn([C@@H]3O[C@H](CO)[C@@H](O)[C@H]3O)c2[nH]1 | active: 1.64 µM | –
COc1ccc(CCNC(=O)c2ccc3nc(N4CCOCC4)sc3c2)cc1OC | inconclusive [inhibitor, single point] | –
CCOC(=O)C(=NC(C)(C)C)NNc1cc(Cl)ccc1Cl | – | inactive: -27.8%
COC(=O)Nc1nc2c(s1)CCCC2 | – | inactive: 9.91%
CC(=O)Nc1cc(-c2ccccc2Cl)cn2c(-c3ccc(S(C)(=O)=O)cc3)cnc12 | inconclusive [inhibitor, single point] | –

Structure (SMILES) | Potency | activity change, negative = growth inhibition
CCC(C)(C)n1nnnc1C(C(C)C)N(CCN1CCOCC1)Cc1cc2cccc(C)c2[nH]c1=O (stereo unspecified) | active: 18.4 µM | –
Cc1ccc(S(=O)(=O)c2c(N)n(-c3ccccc3)c3nc4ccccc4nc23)cc1 | inconclusive [inhibitor, single point] | –
COc1ccc(NS(=O)(=O)c2cccc(C(=O)N3CCCCCCC3)c2)cc1 | inconclusive [inhibitor, single point] | –
Cc1ccc(NCc2nnc(SCC(=O)O)n2-c2ccc(C)cc2)cc1 | – | inactive: 11.1%
CCc1ccc2nc3nc(C)cc(C)c3c(N)c2c1 | inconclusive [inhibitor, single point] | –
COc1cc(C(O)c2nc(-c3cccc4cccnc34)cs2)ccc1F (stereo unspecified) | inconclusive [inhibitor, single point] | –
COc1ccc(NC(=O)CSc2nnc(-c3cccs3)n2C)cc1OC | – | inactive: -2.99%
CCOC(=O)N1CCN(C(=O)c2cccc(S(=O)(=O)Nc3ccc(F)cc3)c2)CC1 | inconclusive [inhibitor, single point] | –
O=C(NCc1cccnc1)c1ccc2c(c1)N(Cc1ccccc1)CCS2 | inconclusive [inhibitor, single point] | –
C=C(C1=CCN(S(=O)(=O)C(C)(C)C)[C@@H]1CCO)c1ccccc1 | inconclusive [inhibitor, single point] | –
O=C1NC2(CCCCCCC2)C(=O)N1Cc1ccc(F)cc1 | – | inactive: -2.19%
COc1ccc2cc3cc(C(=O)NCCCN4CCc5ccccc5C4)sc3nc2c1 | inconclusive [inhibitor, single point] | –
CC(=O)Nc1nc2c(s1)CCc1ccccc1-2 | – | inactive: 25.9%
CN(C)C(=O)CN1C(=O)C2CCCCN2C(=O)c2ccccc21 (stereo unspecified) | – | inactive: -10.2%
Cc1c2c(nc3c(C(=O)NC4CC4)cnn13)CCCC2 | – | inactive: -1.68%
CC(C)C(NC(=O)CN1C(=O)c2ccccc2C1=O)c1ccccc1 (stereo unspecified) | – | inactive: 1.91%
CC1(C(=O)NCc2ccccc2)CSCC(=O)N1CCCn1ccnc1 (stereo unspecified) | – | inactive: 15.7%
CC[C@@]1(C(=O)OC)N[C@H](CN(C)C(=O)c2ccccc2)[C@@H]2C(=O)N(Cc3ccccc3)C(=O)[C@@H]21 | – | inactive: -7.78%
CCCCn1c(N)c(N(CCOC)C(=O)C2CCN(C(=O)c3ccc(Cl)cc3)CC2)c(=O)[nH]c1=O | – | inactive: 14.8%
COc1ccc(C(=O)Nc2ccc(-c3nnn(CC(=O)NCc4ccco4)n3)cc2)cc1 | inconclusive [inhibitor, single point] | –
COc1ccc(CC(N)c2csc(Nc3ccc(S(C)(=O)=O)cc3)n2)cc1 (stereo unspecified) | inconclusive [inhibitor, single point] | –
CC(=O)c1ccc(N2CCN(C(=O)C(=O)c3c(C)[nH]c4ccccc34)CC2)cc1 | inconclusive [inhibitor, single point] | –
COc1cc(-c2cc(=O)c3c(C)cc(O)cc3o2)cc(OC)c1OC | inconclusive [inhibitor, single point] | –
